These results are taken from publication PMC12820563.

This is one part of the list. The list includes weakly bound sequences.

This test deals with T1, MBP-FoxP3dN (UniProt Q99JB6).
T1 sequence: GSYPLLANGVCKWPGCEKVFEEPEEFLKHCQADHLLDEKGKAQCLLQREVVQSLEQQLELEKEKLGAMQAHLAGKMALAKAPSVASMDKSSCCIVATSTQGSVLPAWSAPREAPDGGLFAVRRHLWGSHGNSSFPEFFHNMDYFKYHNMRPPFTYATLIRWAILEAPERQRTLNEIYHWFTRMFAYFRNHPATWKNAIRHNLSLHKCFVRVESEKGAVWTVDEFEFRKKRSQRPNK
The test can be described thus: PD-seq (MBP pull-down with sequencing). The conditions noted are these: 20 mM Tris-HCl pH 7.5, 100 mM NaCl, 1.5 mM MgCl2, 0.4 uM protein, 0.1 uM dsDNA library, 30 min, room temperature, amylose pull-down; high values mean tight binding; double strand, one strand shown.
Regarding “GATGATTGTTCTCCCAGCTGATGAATTTCTAATCTCGAGTAAACAAATTTTCCTAATCTTTCTGTTCAAGCGCCATCTAC”, the binding signal (RPM ratio (pull-down/input)) was 0.288.
On to “GATGATTGTTCTCCCAGCTGATGAATTTAGAGAGTCGAGTAAACAAATTTTCCTAATCTTTCTGTTCAAGCGCCATCTAC”, for which the binding signal (RPM ratio (pull-down/input)) is 0.302.
To “GATGATTGTTCTCCCAGCTGATGAATTTGCAATATCGAGTAAACAAATTTTCCTAATCTTTCTGTTCAAGCGCCATCTAC” belongs 2.6; to “GATGATTGTTCTCCCAGCTGATGAATTAGCTAACTCGAGTAAACAAATTTTCCTAATCTTTCTGTTCAAGCGCCATCTAC”, 0.316; to “GATGATTGTTCTCCCAGCTGATGAATTGGTGCGGTCGAGTAAACAAATTTTCCTAATCTTTCTGTTCAAGCGCCATCTAC”, 0.482.
As for “GATGATTGTTCTCCCAGCTGATGAATTGCACCGTTCGAGTAAACAAATTTTCCTAATCTTTCTGTTCAAGCGCCATCTAC”, the binding signal (RPM ratio (pull-down/input)) came to 0.828.
Next, “GATGATTGTTCTCCCAGCTGATGAATTCCCTGGTTCGAGTAAACAAATTTTCCTAATCTTTCTGTTCAAGCGCCATCTAC”: 0.245.
With “GATGATTGTTCTCCCAGCTGATGAATTACGGCGGTCGAGTAAACAAATTTTCCTAATCTTTCTGTTCAAGCGCCATCTAC”, the binding signal (RPM ratio (pull-down/input)) turned out to be 0.329.
To “GATGATTGTTCTCCCAGCTGATGAATTATAACCTTCGAGTAAACAAATTTTCCTAATCTTTCTGTTCAAGCGCCATCTAC” belongs 0.355; to “GATGATTGTTCTCCCAGCTGATGAATTCCCAACGTCGAGTAAACAAATTTTCCTAATCTTTCTGTTCAAGCGCCATCTAC”, 0.274.
“GATGATTGTTCTCCCAGCTGATGAATTTTGTGCGTCGAGTAAACAAATTTTCCTAATCTTTCTGTTCAAGCGCCATCTAC”: the binding signal (RPM ratio (pull-down/input)) came out at 1.52.
In the case of “GATGATTGTTCTCCCAGCTGATGAATTTCTCGCTTCGAGTAAACAAATTTTCCTAATCTTTCTGTTCAAGCGCCATCTAC”, the binding signal (RPM ratio (pull-down/input)) was 0.34.
To “GATGATTGTTCTCCCAGCTGATGAATTGTAACCGTCGAGTAAACAAATTTTCCTAATCTTTCTGTTCAAGCGCCATCTAC” belongs 0.518; to “GATGATTGTTCTCCCAGCTGATGAATTGGACTGCTCGAGTAAACAAATTTTCCTAATCTTTCTGTTCAAGCGCCATCTAC”, 0.308; to “GATGATTGTTCTCCCAGCTGATGAATTATAGTGATCGAGTAAACAAATTTTCCTAATCTTTCTGTTCAAGCGCCATCTAC”, 0.649.
Next, “GATGATTGTTCTCCCAGCTGATGAATTTCCTAGATCGAGTAAACAAATTTTCCTAATCTTTCTGTTCAAGCGCCATCTAC”: 0.159.
Turning to “GATGATTGTTCTCCCAGCTGATGAATTTTCGCCATCGAGTAAACAAATTTTCCTAATCTTTCTGTTCAAGCGCCATCTAC”, the binding signal (RPM ratio (pull-down/input)) is 2.67.
For the sequence “GATGATTGTTCTCCCAGCTGATGAATTGACATAGTCGAGTAAACAAATTTTCCTAATCTTTCTGTTCAAGCGCCATCTAC”, the binding signal (RPM ratio (pull-down/input)) was 0.408.
To “GATGATTGTTCTCCCAGCTGATGAATTCGTAGACTCGAGTAAACAAATTTTCCTAATCTTTCTGTTCAAGCGCCATCTAC” belongs 0.453.
To “GATGATTGTTCTCCCAGCTGATGAATTACTGACGTCGAGTAAACAAATTTTCCTAATCTTTCTGTTCAAGCGCCATCTAC” belongs 0.346.
To “GATGATTGTTCTCCCAGCTGATGAATTATACTATTCGAGTAAACAAATTTTCCTAATCTTTCTGTTCAAGCGCCATCTAC” belongs 0.634.
In the case of “GATGATTGTTCTCCCAGCTGATGAATTAATACTATCGAGTAAACAAATTTTCCTAATCTTTCTGTTCAAGCGCCATCTAC”, the binding signal (RPM ratio (pull-down/input)) was determined as 0.575.
Next, “GATGATTGTTCTCCCAGCTGATGAATTTCTTGTCTCGAGTAAACAAATTTTCCTAATCTTTCTGTTCAAGCGCCATCTAC”: 0.743; “GATGATTGTTCTCCCAGCTGATGAATTGGGTGCCTCGAGTAAACAAATTTTCCTAATCTTTCTGTTCAAGCGCCATCTAC”: 0.919.
To “GATGATTGTTCTCCCAGCTGATGAATTGTGAAATTCGAGTAAACAAATTTTCCTAATCTTTCTGTTCAAGCGCCATCTAC” belongs 0.836; to “GATGATTGTTCTCCCAGCTGATGAATTCTTTTGATCGAGTAAACAAATTTTCCTAATCTTTCTGTTCAAGCGCCATCTAC”, 0.285; to “GATGATTGTTCTCCCAGCTGATGAATTGAGGTTTTCGAGTAAACAAATTTTCCTAATCTTTCTGTTCAAGCGCCATCTAC”, 0.645.
Next, “GATGATTGTTCTCCCAGCTGATGAATTGCGCGGATCGAGTAAACAAATTTTCCTAATCTTTCTGTTCAAGCGCCATCTAC”: 0.677; “GATGATTGTTCTCCCAGCTGATGAATTGAGTACGTCGAGTAAACAAATTTTCCTAATCTTTCTGTTCAAGCGCCATCTAC”: 0.456; “GATGATTGTTCTCCCAGCTGATGAATTTTCCGAATCGAGTAAACAAATTTTCCTAATCTTTCTGTTCAAGCGCCATCTAC”: 0.21.
Take “GATGATTGTTCTCCCAGCTGATGAATTTTGGTGGTCGAGTAAACAAATTTTCCTAATCTTTCTGTTCAAGCGCCATCTAC”: the binding signal (RPM ratio (pull-down/input)) was 0.588.
Next, “GATGATTGTTCTCCCAGCTGATGAATTATGCATGTCGAGTAAACAAATTTTCCTAATCTTTCTGTTCAAGCGCCATCTAC”: 6.46; “GATGATTGTTCTCCCAGCTGATGAATTCTCTTGCTCGAGTAAACAAATTTTCCTAATCTTTCTGTTCAAGCGCCATCTAC”: 0.273.
Next, “GATGATTGTTCTCCCAGCTGATGAATTGTGCCCTTCGAGTAAACAAATTTTCCTAATCTTTCTGTTCAAGCGCCATCTAC”: 2.1; “GATGATTGTTCTCCCAGCTGATGAATTATAGACCTCGAGTAAACAAATTTTCCTAATCTTTCTGTTCAAGCGCCATCTAC”: 0.324.
Regarding “GATGATTGTTCTCCCAGCTGATGAATTGATGGGATCGAGTAAACAAATTTTCCTAATCTTTCTGTTCAAGCGCCATCTAC”, the binding signal (RPM ratio (pull-down/input)) was found to be 0.394.
Next, “GATGATTGTTCTCCCAGCTGATGAATTCGCTAGGTCGAGTAAACAAATTTTCCTAATCTTTCTGTTCAAGCGCCATCTAC”: 0.421; “GATGATTGTTCTCCCAGCTGATGAATTCACAGTTTCGAGTAAACAAATTTTCCTAATCTTTCTGTTCAAGCGCCATCTAC”: 0.407.
As for “GATGATTGTTCTCCCAGCTGATGAATTAGCGTTATCGAGTAAACAAATTTTCCTAATCTTTCTGTTCAAGCGCCATCTAC”, the binding signal (RPM ratio (pull-down/input)) was determined as 1.41.
To “GATGATTGTTCTCCCAGCTGATGAATTGTTCTGCTCGAGTAAACAAATTTTCCTAATCTTTCTGTTCAAGCGCCATCTAC” belongs 0.359; to “GATGATTGTTCTCCCAGCTGATGAATTGCACATCTCGAGTAAACAAATTTTCCTAATCTTTCTGTTCAAGCGCCATCTAC”, 1.4.
To “GATGATTGTTCTCCCAGCTGATGAATTCTGAAATTCGAGTAAACAAATTTTCCTAATCTTTCTGTTCAAGCGCCATCTAC” belongs 0.528.
To “GATGATTGTTCTCCCAGCTGATGAATTGATTCGCTCGAGTAAACAAATTTTCCTAATCTTTCTGTTCAAGCGCCATCTAC” belongs 0.331; to “GATGATTGTTCTCCCAGCTGATGAATTAAGTTATTCGAGTAAACAAATTTTCCTAATCTTTCTGTTCAAGCGCCATCTAC”, 3.65; to “GATGATTGTTCTCCCAGCTGATGAATTCCGCGAGTCGAGTAAACAAATTTTCCTAATCTTTCTGTTCAAGCGCCATCTAC”, 0.749.
As for “GATGATTGTTCTCCCAGCTGATGAATTCGTATTTTCGAGTAAACAAATTTTCCTAATCTTTCTGTTCAAGCGCCATCTAC”, the binding signal (RPM ratio (pull-down/input)) turned out to be 1.23.
Take “GATGATTGTTCTCCCAGCTGATGAATTGTTTGTATCGAGTAAACAAATTTTCCTAATCTTTCTGTTCAAGCGCCATCTAC”: the binding signal (RPM ratio (pull-down/input)) was 7.73.
To “GATGATTGTTCTCCCAGCTGATGAATTAATTGGCTCGAGTAAACAAATTTTCCTAATCTTTCTGTTCAAGCGCCATCTAC” belongs 1.53; to “GATGATTGTTCTCCCAGCTGATGAATTCGACAGTTCGAGTAAACAAATTTTCCTAATCTTTCTGTTCAAGCGCCATCTAC”, 0.433.
Next, “GATGATTGTTCTCCCAGCTGATGAATTGGTACACTCGAGTAAACAAATTTTCCTAATCTTTCTGTTCAAGCGCCATCTAC”: 0.74; “GATGATTGTTCTCCCAGCTGATGAATTTTAACTCTCGAGTAAACAAATTTTCCTAATCTTTCTGTTCAAGCGCCATCTAC”: 0.434; “GATGATTGTTCTCCCAGCTGATGAATTTTCTAGTTCGAGTAAACAAATTTTCCTAATCTTTCTGTTCAAGCGCCATCTAC”: 0.281.
In the case of “GATGATTGTTCTCCCAGCTGATGAATTTCGCTCCTCGAGTAAACAAATTTTCCTAATCTTTCTGTTCAAGCGCCATCTAC”, the binding signal (RPM ratio (pull-down/input)) worked out at 0.836.
Turning to “GATGATTGTTCTCCCAGCTGATGAATTGGGTCCGTCGAGTAAACAAATTTTCCTAATCTTTCTGTTCAAGCGCCATCTAC”, the binding signal (RPM ratio (pull-down/input)) stood at 0.276.
Consider “GATGATTGTTCTCCCAGCTGATGAATTGGCTCCCTCGAGTAAACAAATTTTCCTAATCTTTCTGTTCAAGCGCCATCTAC”, for which the binding signal (RPM ratio (pull-down/input)) was determined as 0.272.
Next, “GATGATTGTTCTCCCAGCTGATGAATTGTACCCGTCGAGTAAACAAATTTTCCTAATCTTTCTGTTCAAGCGCCATCTAC”: 0.337.
In the case of “GATGATTGTTCTCCCAGCTGATGAATTTGGTCGGTCGAGTAAACAAATTTTCCTAATCTTTCTGTTCAAGCGCCATCTAC”, the binding signal (RPM ratio (pull-down/input)) was determined as 0.329.
Take “GATGATTGTTCTCCCAGCTGATGAATTCACATACTCGAGTAAACAAATTTTCCTAATCTTTCTGTTCAAGCGCCATCTAC”: the binding signal (RPM ratio (pull-down/input)) worked out at 0.535.
Next, “GATGATTGTTCTCCCAGCTGATGAATTACGTAGCTCGAGTAAACAAATTTTCCTAATCTTTCTGTTCAAGCGCCATCTAC”: 0.667.
Next, “GATGATTGTTCTCCCAGCTGATGAATTTGCGACGTCGAGTAAACAAATTTTCCTAATCTTTCTGTTCAAGCGCCATCTAC”: 0.686; “GATGATTGTTCTCCCAGCTGATGAATTCAACCACTCGAGTAAACAAATTTTCCTAATCTTTCTGTTCAAGCGCCATCTAC”: 0.39; “GATGATTGTTCTCCCAGCTGATGAATTTCTTGCTTCGAGTAAACAAATTTTCCTAATCTTTCTGTTCAAGCGCCATCTAC”: 0.333.
To “GATGATTGTTCTCCCAGCTGATGAATTCTCCAAATCGAGTAAACAAATTTTCCTAATCTTTCTGTTCAAGCGCCATCTAC” belongs 0.202.
